This assay has as its target T1, HA-DHX29 (full-length, FL-DHX29) (human) (UniProt Q7Z478).
T1 sequence: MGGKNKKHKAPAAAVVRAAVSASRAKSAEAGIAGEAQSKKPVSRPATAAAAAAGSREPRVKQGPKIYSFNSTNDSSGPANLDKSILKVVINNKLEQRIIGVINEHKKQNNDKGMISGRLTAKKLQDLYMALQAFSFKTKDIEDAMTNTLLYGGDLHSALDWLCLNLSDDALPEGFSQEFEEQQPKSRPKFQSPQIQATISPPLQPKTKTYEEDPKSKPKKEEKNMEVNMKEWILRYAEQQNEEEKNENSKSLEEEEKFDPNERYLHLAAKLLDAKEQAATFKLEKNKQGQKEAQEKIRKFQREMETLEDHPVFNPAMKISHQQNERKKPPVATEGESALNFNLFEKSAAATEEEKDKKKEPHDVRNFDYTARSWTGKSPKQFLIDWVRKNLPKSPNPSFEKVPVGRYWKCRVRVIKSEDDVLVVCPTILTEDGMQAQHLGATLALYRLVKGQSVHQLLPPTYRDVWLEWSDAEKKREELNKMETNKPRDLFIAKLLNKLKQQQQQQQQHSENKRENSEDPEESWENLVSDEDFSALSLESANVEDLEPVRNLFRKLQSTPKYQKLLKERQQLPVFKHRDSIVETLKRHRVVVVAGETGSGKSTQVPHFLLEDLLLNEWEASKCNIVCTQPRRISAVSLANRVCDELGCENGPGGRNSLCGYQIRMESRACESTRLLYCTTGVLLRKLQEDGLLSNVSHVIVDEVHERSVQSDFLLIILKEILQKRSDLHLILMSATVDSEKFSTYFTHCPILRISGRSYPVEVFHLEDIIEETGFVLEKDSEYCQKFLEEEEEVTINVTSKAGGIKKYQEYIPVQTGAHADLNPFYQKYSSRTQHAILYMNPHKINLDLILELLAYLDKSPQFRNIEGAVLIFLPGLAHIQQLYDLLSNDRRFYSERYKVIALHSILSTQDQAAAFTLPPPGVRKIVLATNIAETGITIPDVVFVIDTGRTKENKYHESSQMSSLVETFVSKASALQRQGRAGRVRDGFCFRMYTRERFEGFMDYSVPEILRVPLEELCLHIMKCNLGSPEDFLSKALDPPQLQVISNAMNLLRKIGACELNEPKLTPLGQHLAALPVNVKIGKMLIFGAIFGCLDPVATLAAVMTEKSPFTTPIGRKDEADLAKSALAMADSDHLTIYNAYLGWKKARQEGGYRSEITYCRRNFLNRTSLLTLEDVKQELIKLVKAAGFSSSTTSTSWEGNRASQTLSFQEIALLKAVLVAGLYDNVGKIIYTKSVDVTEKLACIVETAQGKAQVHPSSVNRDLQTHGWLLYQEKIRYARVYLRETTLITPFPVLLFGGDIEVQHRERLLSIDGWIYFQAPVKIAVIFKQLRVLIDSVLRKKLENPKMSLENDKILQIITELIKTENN
Briefly: co-IP; 293T cells cotransfected; whole cell lysates immunoprecipitated with anti-HA beads, immunoblotted with anti-Flag (Fig 5A, Fig 6A); also in RIG-I knockout 293T cells (S5D Fig). On the technique in general: A western blot detects proteins with antibodies after separation by electrophoresis.

Chains of the proteins cited; added tags and fusions are not shown.
UniProt Q7Z434: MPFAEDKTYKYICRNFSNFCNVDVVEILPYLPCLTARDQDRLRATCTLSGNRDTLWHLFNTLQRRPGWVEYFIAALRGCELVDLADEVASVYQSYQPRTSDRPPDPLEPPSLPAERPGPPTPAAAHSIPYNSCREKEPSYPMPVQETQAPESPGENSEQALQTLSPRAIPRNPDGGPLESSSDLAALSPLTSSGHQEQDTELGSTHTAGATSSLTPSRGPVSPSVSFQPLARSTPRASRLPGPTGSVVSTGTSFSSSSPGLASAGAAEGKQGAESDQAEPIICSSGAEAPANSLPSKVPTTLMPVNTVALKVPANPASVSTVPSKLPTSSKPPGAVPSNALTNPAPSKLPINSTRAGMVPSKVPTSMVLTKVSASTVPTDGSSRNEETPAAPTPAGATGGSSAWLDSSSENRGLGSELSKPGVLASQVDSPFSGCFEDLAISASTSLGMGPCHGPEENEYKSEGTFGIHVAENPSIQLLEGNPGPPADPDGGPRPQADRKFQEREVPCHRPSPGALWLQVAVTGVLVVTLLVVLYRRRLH

No constants are given. Whether binding was seen depends on the method and setting. In cells and extracts the contact can be indirect. Sequences can lack the tags named with a protein.

Regarding Flag-MAVS (from UniProt Q7Z434 1-540), the binding entry is given as “no binding”.

For the origin of these results see PMC5834211.
